T1: LTα1β2 (coated on ELISA plates) (Homo sapiens (Human), UniProt P01374 35-205; Q06643 49-244, Heterotrimer of one alpha and two beta chains, as the name says.)
T1 construct: Heterotrimer of one alpha and two beta chains by its name; also called LTa1β2; copies: 1 + 1
T1 sequence (alpha): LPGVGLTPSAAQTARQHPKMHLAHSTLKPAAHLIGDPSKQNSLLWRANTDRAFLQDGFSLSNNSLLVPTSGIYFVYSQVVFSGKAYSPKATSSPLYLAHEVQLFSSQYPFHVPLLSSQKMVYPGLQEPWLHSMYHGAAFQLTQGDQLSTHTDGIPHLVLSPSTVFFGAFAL
T1 sequence (beta): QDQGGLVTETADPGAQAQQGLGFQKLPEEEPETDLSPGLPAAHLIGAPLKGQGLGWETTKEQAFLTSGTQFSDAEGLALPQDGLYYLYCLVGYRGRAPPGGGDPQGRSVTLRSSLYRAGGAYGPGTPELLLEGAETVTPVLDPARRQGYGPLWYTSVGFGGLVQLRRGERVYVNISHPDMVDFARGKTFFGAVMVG

T2: neublastin, homodimeric
T2 construct: also called neublastin dimer
T2 sequence (Q5T4W7 108-220, species assumed, looked up): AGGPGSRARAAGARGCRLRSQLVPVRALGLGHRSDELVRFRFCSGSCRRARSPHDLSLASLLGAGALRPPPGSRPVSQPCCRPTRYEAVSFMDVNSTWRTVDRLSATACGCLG

B1: LTβR:scFc fusion polypeptide (EAG2190) (Fc fusion)
chain: SQPQAVPPYASENQTCRDQEKEYYEPQHRICCSRCPPGTYVSAKCSRIRDTVCATCAENSYNEHWNYLTICQLCRPCDPVMGLEEIAPCTSKRKTQCRCQPGMFCAAWALECTHCELLSDCPPGTEAELKDEVGKGNNHCVPCKAGHFQNTSSPSARCQPHTRCENQGLVEAAPGTAQSDTTCKNPLEPLPPEMSGTMV[in this place human IgG1 Fc]GGGSGGGGSGGGGS[in this place human IgG1 Fc with changes]
notes: also called monomeric LTβR:scFc; LTBβ:scFc
B2: GFRα3:scFc fusion protein (ASK057) (Fc fusion)
chain: DPLPTESRLMNSCLQARRKCQADPTCSAAYHHLDSCTSSISTPLPSEEPSVPADCLEAAQQLRNSSLIGCMCHRRMKNQVACLDIYWTVHRARSLGNYELDVSPYEDTVTSKPWKMNLSKLNMLKPDSDLCLKFAMLCTLNDKCDRLRKAYGEACSGPHCQRHVCLRQLLTFFEKAAEPHAQGLLLCPCAPNDRGCGERRRNTIAPNCALPPVAPNCLELRRLCFSDPLCRSRLVDFQTHCHPMDILGTCATEQSRCLRAYLGLIGTAMTPNFVSNVNTSVALSCTCRGSGNLQEECEMLEGFFSHNPCLTEAIAAKMRFHSQLFSQDWPHPTFAVMAHQNEV[in this place human IgG1 Fc]GGGSGGGGSGGGGS[in this place human IgG1 Fc with changes]
notes: also called GFRα3 immunoadhesin

Assays:
[1] = biological target: T1, LTα1β2 (coated on ELISA plates); test: ELISA on plates coated with 5 ug/ml LTα1β2, detected with anti-human HRP secondary antibody. The value is parameter C (midpoint) of the four-parameter fit y = ((A-D)/(1+(x/C)^B))+D printed under the plot. The unit is taken from the x axis. The upper plateau of the fit (D 1.147) is not reached within the range shown.
Procedure: FIG. 59A depicts the results of an ELISA evaluating the binding affinity of the monomeric LTβR:scFc to LTα1β2. ELISA plates were coated overnight at 4° C. with 5 ug/ml LTα1β2 in PBS. Plates were then blocked with 1% Casein in 10 mM PBS, pH 7.0, then washed with 10 mM PBS, pH 7.0, 0.1% Tween 20 (wash buffer) three times. LTβR:IgG or LTBβ:scFc serially diluted into 10 mM PBS, 362 mM NaCl, 0.055 Tween-20, 0.1% Casein, 5% FBS pH 7.0 (assay diluent) and incubated for 1 h, then washed with wash buffer. To each well was added Donkey anti-human heavy and light specific HRP (Jackson Labs) conjugated secondary antibody diluted 1:5000 in assay diluents for 60 min then washed with PBS. The HRP was developed using tetramethybenzidine and hydrogen peroxide in 100 mM NaAcetate pH 4.0 after several minutes, the assay was stopped by the addition of 100 uL of 1N sulfuric acid and sample absorbance read at 450 nm.

neublastin, homodimeric = biological target: T2, neublastin, homodimeric; test: solution phase Biacore

Binder	EC50 [1] [µg/mL]	stoichiometry (GFRα3:scFc per neublastin dimer) (neublastin, homodimeric)
B1	4.04	
B2		2 GFRα3:scFc per neublastin dimer

From US20090252729A1 (Biogen, published 2009)
